Source: PMC6212790
This is one part of the list. At the low end of the ranking the order means little.

These sequences were tested against T1, GST-Rok-C97-191 (UniProt O34857) (assay: protein binding microarray). Settings: Rok is a gene silencer of Bacillus subtilis; high values mean tight binding; most listed sequences are background and not binding sites; double strand, one strand shown.
T1 sequence: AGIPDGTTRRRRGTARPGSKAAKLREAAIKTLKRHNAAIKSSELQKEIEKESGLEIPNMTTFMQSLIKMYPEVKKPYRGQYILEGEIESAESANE
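Also: rank score from −0.5 (least bound) to 0.5 (best bound).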

Row | Sequence | binding signal
1 | GCAACCAC | 0.0137 E-score
2 | CCCGGTGC | -0.331 E-score
3 | AAAGGCGC | -0.209 E-score
4 | AACGTAGT | 0.128 E-score
5 | ACGCTCTG | -0.00695 E-score
6 | ACGTTAGA | 0.212 E-score
7 | TATGGTGA | 0.088 E-score
8 | ATCTAATA | 0.246 E-score
9 | ATATGTGA | 0.289 E-score
10 | AGCACATA | 0.0492 E-score
11 | CGCGGAAC | -0.19 E-score
12 | ACTGTCTA | -0.114 E-score
13 | CTCACGCA | -0.0368 E-score
14 | CGAAGACC | -0.129 E-score
15 | CGAAACCC | -0.146 E-score
16 | CGCCTGGA | -0.192 E-score
17 | AAGGGCTA | -0.265 E-score
18 | ATTGGTAG | 0.38 E-score
19 | CCCTATTA | 0.0698 E-score
20 | TCAATAGA | 0.117 E-score
21 | ACGATACC | -0.0465 E-score
22 | ACGCAGAC | -0.225 E-score
23 | AGAAAGAA | 0.144 E-score
24 | CACCGCAG | -0.123 E-score
25 | ATGTAGGG | 0.0367 E-score

Row | Sequence | binding signal
26 | TCACCTAA | -0.0128 E-score
27 | AAGCCATT | -0.0115 E-score
28 | GCCCGAAA | -0.274 E-score
29 | CCAAAGCA | -0.217 E-score
30 | ATTAAGAC | -0.0482 E-score
31 | AGGGGGAA | 0.00464 E-score
32 | ACGCGAAA | -0.00202 E-score
33 | CCCCAGAC | -0.292 E-score
34 | CGAGCCCG | -0.123 E-score
35 | CCCTGCAG | -0.286 E-score
36 | AGAGGAGC | -0.189 E-score
37 | ATGACGAA | 0.0895 E-score
38 | CCGAACAC | -0.241 E-score
39 | CCCACACC | -0.0912 E-score
40 | CCTTGGCG | -0.177 E-score
41 | TCCTGTAA | 0.0459 E-score
42 | ACGCATGC | -0.111 E-score
43 | GACCTAGA | 0.0233 E-score
44 | CAATACGC | -0.0675 E-score
45 | AATCAACG | 0.0363 E-score
46 | GCCATGAA | -0.31 E-score
47 | CCGAGGCA | -0.061 E-score
48 | CGTCGGTC | -0.1 E-score
49 | CGAACCCA | 0.00438 E-score
50 | AATAAAAT | 0.33 E-score

Row | Sequence | binding signal
51 | GATTTTCC | -0.0139 E-score
52 | GTACTTAA | 0.314 E-score
53 | CTGCTGCA | -0.136 E-score
54 | GTTAAAAA | 0.158 E-score
55 | CAATGCGC | 0.055 E-score
56 | AGCCAAAA | -0.0673 E-score
57 | CTTTTACA | 0.116 E-score
58 | CAGTCACG | -0.0705 E-score
59 | TCAACTCA | -0.00658 E-score
60 | AAGTAGCC | 0.00315 E-score
61 | GGCATCTA | 0.084 E-score
62 | TACGCACA | 0.21 E-score
63 | AGTAACAC | 0.265 E-score
64 | GGCGCTTA | -0.0748 E-score
65 | AGTTGTGC | 0.0787 E-score
66 | TATACCGA | 0.186 E-score
67 | ATCAGAAA | 0.0239 E-score
68 | ACGAGTCC | -0.207 E-score
69 | AGGGCGGC | -0.386 E-score
70 | CATGGCAA | -0.0505 E-score
71 | AGCCGATC | -0.169 E-score
72 | GCTGCCCA | 0.0455 E-score
73 | AGAAAGGC | -0.124 E-score
74 | ATTAGGTC | 0.152 E-score
75 | AATACTAG | 0.34 E-score

Row | Sequence | binding signal
76 | CCACCCTC | -0.237 E-score
77 | AACCAGCA | 0.0878 E-score
78 | TACGGTAA | 0.302 E-score
79 | CCGTGCCC | -0.331 E-score
80 | CACGACTG | -0.00937 E-score
81 | CATCGCAG | -0.272 E-score
82 | GCCCTTGA | -0.305 E-score
83 | CGGTATTC | 0.238 E-score
84 | AGAGTGGA | -0.126 E-score
85 | TACGGGAA | 0.101 E-score
86 | GGACTGAC | -0.315 E-score
87 | CGCCGGAA | -0.152 E-score
88 | ATTCGTAC | 0.123 E-score
89 | AATTTAGT | 0.165 E-score
90 | CTGATAAA | 0.157 E-score
91 | CAGGCATA | -0.074 E-score
92 | ACTCGTCG | -0.0388 E-score
93 | CTTCATCC | -0.00446 E-score
94 | GTAAACTA | 0.364 E-score
95 | AATATACC | 0.353 E-score
96 | CGCTGTCA | -0.169 E-score
97 | GATGGGGA | -0.101 E-score
98 | CAACCTCA | 0.00314 E-score
99 | CGTACCCA | 0.107 E-score
100 | CACGAGGC | -0.272 E-score

Row | Sequence | binding signal
101 | TCGAAGCA | -0.0421 E-score
102 | TGCGGGAA | -0.161 E-score
103 | AACTGTGG | 0.0108 E-score
104 | GCGATCCC | -0.213 E-score
105 | AGTCAGCC | -0.112 E-score
106 | CGTATATA | 0.258 E-score
107 | ATTCCTAC | 0.168 E-score
108 | TTGGCAAA | -0.0942 E-score
109 | GGATCCTA | -0.119 E-score
110 | AGACCCCG | -0.258 E-score
111 | AACGGTAG | 0.286 E-score
112 | AGCACTAG | -0.0264 E-score
113 | AGGAATCC | -0.102 E-score
114 | AGGTTGGC | 0.0659 E-score
115 | ACTTTTTC | 0.225 E-score
116 | GAGGACAC | -0.0711 E-score
117 | AATGAAAC | -0.0633 E-score
118 | CATTAACC | -0.0128 E-score
119 | GCGCGGTA | 0.117 E-score
120 | AACCAAGC | 0.0549 E-score
121 | AAAGGTGG | -0.264 E-score
122 | AAACCTCG | -0.0732 E-score
123 | AAAACTTC | 0.134 E-score
124 | GGATGCCC | -0.338 E-score
125 | AAGCGCAG | 0.0712 E-score

Row | Sequence | binding signal
126 | TGATTCCA | 0.0212 E-score
127 | CCGAACGG | -0.212 E-score
128 | GTGCTGAA | 0.0378 E-score
129 | ACCGAAGT | -0.0364 E-score
130 | ATGACGCG | -0.0869 E-score
131 | GTCTAGCA | -0.0188 E-score
132 | CGGTACCC | -0.179 E-score
133 | GGGAGAGA | -0.106 E-score
134 | CTGATTAA | 0.165 E-score
135 | AATGAAGA | -0.000427 E-score
136 | GGAAAAAC | 0.0784 E-score
137 | CTGCTTAA | -0.0673 E-score
138 | GAGATGCC | -0.0569 E-score
139 | CAGAGGCA | -0.089 E-score
140 | AATTCCCC | 0.0648 E-score
141 | GTTTATTA | 0.235 E-score
142 | AAGATCTG | 0.0648 E-score
143 | AGAGTAGC | 0.0737 E-score
144 | GTCAAGAC | -0.155 E-score
145 | CAGCCTAA | -0.0373 E-score
146 | ATGTGTGG | 0.0571 E-score
147 | CTGCCCTC | -0.285 E-score
148 | GTGATTGA | -0.0754 E-score
149 | ATGAGCTG | -0.0863 E-score
150 | AGGAGACT | -0.209 E-score

Row | Sequence | binding signal
151 | CTGAATTA | 0.176 E-score
152 | CGACGGCG | -0.25 E-score
153 | AAGGAGCT | -0.074 E-score
154 | ACGGACAT | -0.0295 E-score
155 | ACTTGACA | 0.0993 E-score
156 | AATGACTG | 0.0506 E-score
157 | CAGTCTCC | -0.233 E-score
158 | AATATGAT | 0.213 E-score
159 | AAATGTCT | 0.109 E-score
160 | CCCAGAGA | -0.0676 E-score
161 | GATCTAGC | 0.218 E-score
162 | GCCCAAGA | -0.255 E-score
163 | ACTACTCC | 0.273 E-score
164 | CATCATCG | -0.141 E-score
165 | CGCTAACC | -0.133 E-score
166 | CTGAATTC | -0.15 E-score
167 | AGACCATG | -0.132 E-score
168 | CAGTTCCC | -0.138 E-score
169 | CAAGCCAA | -0.0364 E-score
170 | GATAACGA | 0.0698 E-score
171 | AGTTCTAC | 0.386 E-score
172 | TCGCGCGA | 0.0974 E-score
173 | GGGAGGCA | -0.214 E-score
174 | AATCTTGA | -0.0166 E-score
175 | GTCCCTAA | -0.0476 E-score

Row | Sequence | binding signal
176 | ATATACCA | 0.344 E-score
177 | AGCGACTG | -0.0115 E-score
178 | CCCGAGAG | -0.232 E-score
179 | CGTTAACG | 0.0189 E-score
180 | GTTATGTA | 0.292 E-score
181 | GGGCGAGA | -0.0841 E-score
182 | ACATGATA | 0.245 E-score
183 | ATCTTGGA | 0.0959 E-score
184 | AAGTCGCT | 0.00124 E-score
185 | AGAGGCTA | -0.118 E-score
186 | AGCTTTAA | 0.229 E-score
187 | AGGACAGG | -0.0962 E-score
188 | CGCGTCAA | -0.0156 E-score
189 | CGGATCAA | -0.0523 E-score
190 | TAGATCAA | 0.156 E-score
191 | ACATATAG | 0.206 E-score
192 | CAAAGTGA | -0.0177 E-score
193 | CGCAATGA | 0.0293 E-score
194 | CTACCTAA | 0.174 E-score
195 | CCGGAGGC | -0.356 E-score
196 | ACGTTCCG | -0.233 E-score
197 | GTCACATA | 0.116 E-score
198 | AAAGAATC | 0.031 E-score
199 | AGTCACGC | -0.258 E-score
200 | CAGAGGTC | -0.266 E-score

Row | Sequence | binding signal
201 | CGTGAGTA | 0.0315 E-score
202 | TAGCTCGA | 0.126 E-score
203 | GCATGAGA | -0.0679 E-score
204 | GCGACTGA | -0.0717 E-score
205 | GACAACGC | -0.201 E-score
206 | ACCCAGTA | 0.0467 E-score
207 | GCGTTTTA | 0.0397 E-score
208 | CCTGCATC | -0.169 E-score
209 | CAGCGTGA | -0.143 E-score
210 | ACAGCACT | -0.14 E-score
211 | CGGGATAG | -0.0175 E-score
212 | CCTCTGAA | -0.157 E-score
213 | GCGGACGA | -0.188 E-score
214 | AAAAGTTC | 0.174 E-score
215 | ACTTTATA | 0.195 E-score
216 | CATAACTA | 0.266 E-score
217 | GCCCATCC | -0.211 E-score
218 | TAAGCACA | -0.0818 E-score
219 | CCGGCCCG | -0.252 E-score
